Experiment [1] has as its target T1, PHC1 (human (endogenous in H9 hESCs)) (UniProt P78364).
T1 sequence: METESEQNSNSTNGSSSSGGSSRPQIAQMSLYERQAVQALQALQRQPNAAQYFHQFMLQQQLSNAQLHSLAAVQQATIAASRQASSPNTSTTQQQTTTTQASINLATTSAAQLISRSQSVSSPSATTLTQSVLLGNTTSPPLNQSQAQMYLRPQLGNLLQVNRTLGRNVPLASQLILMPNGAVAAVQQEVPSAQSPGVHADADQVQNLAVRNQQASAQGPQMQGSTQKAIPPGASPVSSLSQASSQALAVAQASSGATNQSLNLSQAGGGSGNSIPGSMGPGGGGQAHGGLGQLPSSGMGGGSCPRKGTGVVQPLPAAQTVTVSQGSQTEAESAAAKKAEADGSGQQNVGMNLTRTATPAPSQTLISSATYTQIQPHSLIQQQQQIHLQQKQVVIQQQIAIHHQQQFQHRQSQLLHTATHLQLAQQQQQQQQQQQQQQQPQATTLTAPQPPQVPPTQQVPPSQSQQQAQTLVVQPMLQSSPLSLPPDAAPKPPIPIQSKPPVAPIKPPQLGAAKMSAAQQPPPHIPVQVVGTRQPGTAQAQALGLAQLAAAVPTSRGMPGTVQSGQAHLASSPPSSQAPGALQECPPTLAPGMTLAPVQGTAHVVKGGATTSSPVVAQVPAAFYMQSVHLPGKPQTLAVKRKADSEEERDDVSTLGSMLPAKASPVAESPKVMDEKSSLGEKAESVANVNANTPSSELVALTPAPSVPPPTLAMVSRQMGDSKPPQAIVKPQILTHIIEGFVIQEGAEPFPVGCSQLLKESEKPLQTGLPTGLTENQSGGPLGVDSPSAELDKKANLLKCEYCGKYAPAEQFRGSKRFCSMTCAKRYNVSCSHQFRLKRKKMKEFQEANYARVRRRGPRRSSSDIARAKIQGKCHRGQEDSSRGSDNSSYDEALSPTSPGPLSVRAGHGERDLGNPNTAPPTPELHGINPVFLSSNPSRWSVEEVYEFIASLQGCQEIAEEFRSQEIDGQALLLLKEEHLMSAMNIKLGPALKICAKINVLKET
Description: co-IP; endogenous proteins from total hESC extracts; antibodies against RING1B or PHC1 overnight at 4 °C, Protein A/G magnetic beads, immunoblotting; RING1B IP also done after shRNA knockdown of PHC1. For orientation: Immunoblotting shows a protein as a band on a membrane.

The chains behind the UniProt entries cited, without tags or fusion partners.
UniProt Q99496: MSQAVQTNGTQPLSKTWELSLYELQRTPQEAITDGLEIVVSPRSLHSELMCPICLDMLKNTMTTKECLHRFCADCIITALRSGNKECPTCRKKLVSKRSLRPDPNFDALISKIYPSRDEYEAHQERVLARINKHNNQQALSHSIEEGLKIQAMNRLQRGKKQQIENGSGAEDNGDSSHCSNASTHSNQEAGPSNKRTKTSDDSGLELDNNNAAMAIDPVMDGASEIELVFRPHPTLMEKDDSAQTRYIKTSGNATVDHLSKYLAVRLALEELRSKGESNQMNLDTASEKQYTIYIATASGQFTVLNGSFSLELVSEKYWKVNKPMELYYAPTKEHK
UniProt Q9H9S0: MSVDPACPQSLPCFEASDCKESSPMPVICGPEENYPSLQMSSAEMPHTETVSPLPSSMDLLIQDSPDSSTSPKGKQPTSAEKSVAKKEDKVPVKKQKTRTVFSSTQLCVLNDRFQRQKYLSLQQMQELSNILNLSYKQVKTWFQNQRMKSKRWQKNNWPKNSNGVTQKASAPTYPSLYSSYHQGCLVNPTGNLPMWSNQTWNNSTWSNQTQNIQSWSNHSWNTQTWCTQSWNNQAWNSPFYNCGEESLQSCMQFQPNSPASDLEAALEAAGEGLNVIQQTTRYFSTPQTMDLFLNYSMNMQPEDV
UniProt Q01860: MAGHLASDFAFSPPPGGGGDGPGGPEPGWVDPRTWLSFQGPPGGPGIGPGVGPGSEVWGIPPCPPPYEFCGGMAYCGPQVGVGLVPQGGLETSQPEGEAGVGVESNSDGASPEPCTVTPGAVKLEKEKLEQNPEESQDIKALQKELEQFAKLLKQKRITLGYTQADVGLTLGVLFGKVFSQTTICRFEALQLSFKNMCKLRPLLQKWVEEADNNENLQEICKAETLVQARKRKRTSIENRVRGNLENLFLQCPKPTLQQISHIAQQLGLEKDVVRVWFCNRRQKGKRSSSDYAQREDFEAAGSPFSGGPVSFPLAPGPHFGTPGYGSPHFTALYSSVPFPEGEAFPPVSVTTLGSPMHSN
UniProt P48431: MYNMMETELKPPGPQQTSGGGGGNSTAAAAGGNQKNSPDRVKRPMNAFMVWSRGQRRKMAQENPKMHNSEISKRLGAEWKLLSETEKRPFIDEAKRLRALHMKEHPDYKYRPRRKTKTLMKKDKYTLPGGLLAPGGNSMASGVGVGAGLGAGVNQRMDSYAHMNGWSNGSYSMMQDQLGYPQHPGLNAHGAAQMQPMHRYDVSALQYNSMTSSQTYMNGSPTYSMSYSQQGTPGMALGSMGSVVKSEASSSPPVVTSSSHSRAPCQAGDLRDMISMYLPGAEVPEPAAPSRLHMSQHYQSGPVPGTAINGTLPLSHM

The target in experiment [2] is T2, PHC1-FLAG (UniProt P78364).
T2 sequence: T1 sequence
Description: co-IP; nuclear lysates of HEK293T cells transfected with PHC1-FLAG and NANOG-HA; anti-FLAG Affinity Gel or anti-HA magnetic beads overnight at 4 °C; washes with 150 mM NaCl, 50 mM Tris, 1 mM MgCl2, 1% NP-40, pH 7.5.

In experiment [3] the target is RING1B (human (endogenous in H9 hESCs)) (UniProt Q99496). Description: co-IP; endogenous proteins from total hESC extracts; antibodies against RING1B or PHC1 overnight at 4 °C, Protein A/G magnetic beads, immunoblotting; RING1B IP also done after shRNA knockdown of PHC1.
Experiment [4] shares this target. The experiment is described as above. This is another data set of the same source.
In experiment [5] the target is T3, Nanog (mouse (endogenous in mESCs)) (UniProt Q80Z64).
T3 sequence: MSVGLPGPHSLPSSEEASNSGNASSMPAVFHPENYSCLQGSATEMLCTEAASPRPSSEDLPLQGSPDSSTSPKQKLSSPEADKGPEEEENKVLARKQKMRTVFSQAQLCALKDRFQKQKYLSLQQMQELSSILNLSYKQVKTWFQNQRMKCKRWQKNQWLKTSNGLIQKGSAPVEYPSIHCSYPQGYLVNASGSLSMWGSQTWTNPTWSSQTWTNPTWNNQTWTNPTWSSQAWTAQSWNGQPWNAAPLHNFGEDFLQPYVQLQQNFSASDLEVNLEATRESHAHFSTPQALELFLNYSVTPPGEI
Description: co-IP; mESCs overexpressing exogenous Phc1-FLAG; proteins cross-linked with DTBP, nuclear lysates, anti-Nanog antibody at 4 °C overnight, Protein A/G magnetic beads; cross-links reversed with DTT before immunoblotting.

Where a chain is given by its changes, count along the chain named. Read-outs that look alike come from different tables or passages of the source. No constants are given. Whether binding was seen depends on the method and setting. Binding seen in cells or lysates may run through a third protein. Some entries that bind do so weakly or less than the wild type. For some of these results: Tags and fused reporters may be left off the sequences shown.

In the case of NANOG (from UniProt Q9H9S0 1-305), the binding result in experiment [1] is recorded as “binds”.
Consider NANOG-HA (from UniProt Q9H9S0 1-305), for which the binding entry in experiment [2] is “binds”.
Consider OCT4 (from UniProt Q01860 1-360), for which the binding result in experiment [1] was “no binding”.
On to “OCT4 (from UniProt Q01860 1-360) (other; other documents disagree on this pair)”, for which the binding result in experiment [3] was “no binding”.
SOX2 (from UniProt P48431 1-317): the binding entry in experiment [3] and in experiment [1] was “no binding” each time.

B1: RYBP (protein, UniProt Q8N488 1-228)
chain: MTMGDKKSPTRPKRQAKPAADEGFWDCSVCTFRNSAEAFKCSICDVRKGTSTRKPRINSQLVAQQVAQQYATPPPPKKEKKEKVEKQDKEKPEKDKEISPSVTKKNTNKKTKPKSDILKDPPSEANSIQSANATTKTSETNHTSRPRLKNVDRSTAQQLAVTVGNVTVIITDFKEKTRSSSTSSSTVTSSAGSEQQNQSSSGSESTDKGSSRSSTPKGDMSAVNDESF
Take B1: the binding result in experiment [4] is on record as “binds”.

B2: Rybp (protein, UniProt Q8CCI5 1-228)
chain: B1 chain with Q87P, E97D
For the molecule B2, in experiment [5], the binding result was “no binding”.

B3: Phc1-FLAG (protein, UniProt Q64028 1-1010)
chain: METESEQNSSSTNGSSSSGASSRPQIAQMSLYERQAVQALQALQRQPNAAQYFHQFMLQQQLSNAQLHSLAAVQQATIAASRQASSPNSSTAQQQTATTQASMNLATTSAAQLISRSQSVSSPSATTLTQSVLLGNTTSPPLNQSQAQMYLRPQLGNLLQVNRTLGRNVPLASQLILMPNGAVAAVQQEVPPAQSPGVHADADQVQNLAVRNQQASAQGPQMPGSTQKAIPPGASPVSGLSQTSSQALAVAQASSGASGQSLNLSQAGGGSGNSLPGSMGPGGGGQAPGGLGQLPSSGLTGGSCPRKGTGVVQPLPAAQTVTVSQGSQTEAESAAAKKAEADGSGQQSVGMNLTRTATPAPSQTLISSATYTQIQPHSLIQQQQQIHLQQKQVVIQQQIAIHHQQQFQHRQSQLLHTATHLQLAQQQQQQQQQQQQQQQQQQQQQQGTTLTAPQPPQVPPTQQVPPSQSQQQAQTLVVQPMLQSSPLTLPPEPTSKPPIPIQSKPPVAPIKPPQLGAAKMSATQQPPPHIPVQVVGTRQPGSAQAQALGLAQLAAAVPTPRGITGAVQPGQAHLASSPPSSQAAPGALQECPPALAAGMTLAPVQGTAHVVKGGPTASSPVVAQVPAAFYMQSVHLPGKAQTLAVKRKAESEEERDDLSALASVLPTKASPAAESPKVIEEKNSLGEKAEPVASLNANPPNSDLVALAPTPSAPPPTLALVSRQMGDSKPPQAIVKPQILTHIIEGFVIQEGAEPFPVGCSQFLKETKKPLQAGLPTGLNESQPSGPLGGDSPSVELEKKANLLKCEYCGKYAPAEQFRGSKRFCSMTCAKRYNVSCSHQFRLKRKKMKEFQEASYARVRRRGPRRSSSDIARAKIQGKRHRGQEDSSRGSDNSSYDEALSPTSPGPLSVRAGHGERDLGNTITTPSTPELQGINPVFLSSNPSQWSVEEVYEFIASLQGCQEIAEEFRSQEIDGQALLLLKEEHLMSAMNIKLGPALKICAKINVLKET
Consider B3, for which, in experiment [5], the binding result is reported as “binds”.

B4: PHC1 (protein, UniProt P78364 1-1004)
chain: T1 sequence
In the case of B4, in experiment [4], the binding entry is “binds”.

Source of the values: PMC8121881.
